# In the BET-seq Pho4 binding data (Le et al. 2018):
# The other results are listed elsewhere or left out. These are noisy estimates, calculated here from bound and input reads.
# Target: T1, Pho4 (S. cerevisiae) (UniProt P07270)
# T1 sequence: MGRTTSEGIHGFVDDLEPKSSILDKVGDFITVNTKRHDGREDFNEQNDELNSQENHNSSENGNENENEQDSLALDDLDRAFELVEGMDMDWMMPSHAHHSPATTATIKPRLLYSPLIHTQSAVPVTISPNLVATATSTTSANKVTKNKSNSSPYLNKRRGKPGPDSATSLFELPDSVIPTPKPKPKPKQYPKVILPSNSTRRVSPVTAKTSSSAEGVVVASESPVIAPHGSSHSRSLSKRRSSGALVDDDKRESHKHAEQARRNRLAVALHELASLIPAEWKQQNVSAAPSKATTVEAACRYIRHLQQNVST
# Assay: relative binding free energy (BET-seq); higher = weaker binding
# Conditions: reference: library average
row,Sequence,relative binding free energy [kcal/mol]
1,AGCGTCACGTGGTCTG,0.1
2,CGAGTCACGTGAAGTG,0.26
3,AAATTCACGTGTGGCG,0.34
4,TGAGGCACGTGCGGAA,-0.11
5,AGTGCCACGTGGGAGC,-0.08
6,AGAGGCACGTGAGGCG,0.01
7,TCGTGCACGTGGATGT,0.03
8,TTCTGCACGTGGTGGT,-0.04
9,AGGACCACGTGGGTTA,-0.16
10,AGTGTCACGTGTGAGA,0.16
11,GCTGTCACGTGAGGAT,0.25
12,ATGTTCACGTGCCGTG,0.17
13,AGATGCACGTGCGGGC,-0.03
14,TCGGGCACGTGTTCTT,0.06
15,TGATACACGTGAGGGA,0.28
16,TGGCTCACGTGATTCG,0.26
17,AGGTACACGTGGTTGT,-0.05
18,TTGGACACGTGTGGTA,0.05
19,TGAGTCACGTGGTGGT,0.07
20,TAGGCCACGTGGTTGT,-0.05
21,TAGGGCACGTGTAAAA,0.07
22,AATTACACGTGGATTT,0.16
23,GTACTCACGTGGAGTG,0.22
24,TGATCCACGTGGGGAG,0.03
25,TATTACACGTGTGGAA,0.19
26,GGGATCACGTGGGTAG,0.17

row,Sequence,relative binding free energy [kcal/mol]
1,CTTTTCACGTGCATGT,0.24
2,ATTGTCACGTGATAAG,0.33
3,CAGGTCACGTGATGGG,0.24
4,GTAGACACGTGCTGGG,-0.09
5,TAACGCACGTGGGGAA,-0.11
6,AAGGTCACGTGGGTAT,0.02
7,AGGGGCACGTGTATGA,-0.16
8,GAATTCACGTGTAGTA,0.33
9,GCAGGCACGTGGGTAT,-0.15
10,GATGGCACGTGACATG,0.09
11,AATGTCACGTGGAAGT,-0.07
12,TGAGCCACGTGGGGTA,-0.25
13,TGTTGCACGTGATAGA,0.08
14,TTGTGCACGTGCCGTT,0.05
15,TGTTACACGTGCGTGG,0.07
16,GACGGCACGTGAGAGT,0.18
17,TAGCACACGTGGTGGT,-0.1
18,TGGCGCACGTGCGTGG,-0.18
19,GGTTTCACGTGTGTTT,0.4
20,AAGTACACGTGTGGTT,0.06
21,GATCTCACGTGGGTGA,0.24
22,CGGTACACGTGGGTTT,0.01
23,TTTATCACGTGGGTTT,0.12
24,ATTAGCACGTGTGAAG,0.03
25,AAGTGCACGTGAAGGA,0.28
26,AAGTTCACGTGGTAGG,0.27

row,Sequence,relative binding free energy [kcal/mol]
1,AGGCTCACGTGTTTGT,0.12
2,AAGTTCACGTGAATGC,0.56
3,TAGTACACGTGTTATG,0.1
4,TGGTGCACGTGCCAGG,-0.12
5,AACGTCACGTGGTGAG,0.03
6,TTAGTCACGTGGCATA,0.01
7,GACGGCACGTGATGTG,0.12
8,TGATTCACGTGTCTGT,0.29
9,CGTTTCACGTGTGCTT,0.42
10,CTTGACACGTGGGGTT,-0.14
11,CGTTTCACGTGGTGTC,0.24
12,TTTTTCACGTGGGTAT,0.29
13,AGGTGCACGTGTGCTA,-0.08
14,GGTTCCACGTGGGAAG,0.21
15,CATTGCACGTGTGCGG,0.03
16,GCAGGCACGTGGTGGC,-0.17
17,CTTGGCACGTGAGATG,-0.01
18,ATAATCACGTGTGGAG,0.11
19,CGTGACACGTGAGGGT,0.07
20,GGGGGCACGTGCAACG,0.02
21,TTTTTCACGTGAATTG,0.5
22,GAGGGCACGTGGGTGC,-0.11
23,AGTGTCACGTGAGTTA,0.13
24,GAATTCACGTGATTGT,0.46
25,ACTGACACGTGATGGT,0.14
26,GTGACCACGTGGGTAG,-0.25

row,Sequence,relative binding free energy [kcal/mol]
1,TGGAACACGTGTGTAG,0.09
2,AGTGCCACGTGACGGG,-0.03
3,TTGAGCACGTGTGACG,-0.03
4,GTTAACACGTGTGTTT,0.13
5,GTATACACGTGCTTGT,0.04
6,TTCATCACGTGGGTGG,0.03
7,TGTGTCACGTGTTAAT,0.18
8,TGGCTCACGTGCTAGT,0.32
9,ATGGGCACGTGACGGG,-0.02
10,GGGTGCACGTGAACTT,0.13
11,TAGTGCACGTGTGCAT,-0.13
12,TTGGTCACGTGAGATA,0.27
13,TCGTGCACGTGTTGGG,-0.07
14,ATCTGCACGTGTAGTA,0.05
15,GGCTCCACGTGTGGTG,0.14
16,TATGTCACGTGAAGTC,0.33
17,TTCTTCACGTGTGTTC,0.24
18,TTGCTCACGTGGTCTT,-0.02
19,GGCGGCACGTGCGCGG,-0.25
20,GGAAGCACGTGAGTGA,0.3
21,GTAGGCACGTGTTGGG,0
22,GTGTGCACGTGAATAT,0.22
23,GGGGTCACGTGTCATA,0.14
24,TATAGCACGTGGTAGG,-0.07
25,ATGAACACGTGGTTAA,-0.01
26,TTGCTCACGTGTGTCT,0.29

row,Sequence,relative binding free energy [kcal/mol]
1,TATGTCACGTGTGCAT,-0.03
2,TAATACACGTGTGCGT,0.08
3,TTTGACACGTGTAAGA,0.21
4,TGGTTCACGTGATCTA,0.29
5,GATTGCACGTGAAGGG,0.4
6,TAGGGCACGTGTGTGC,-0.05
7,TCGGGCACGTGCGTGT,-0.3
8,TAATACACGTGTGGTA,-0.03
9,CTGGGCACGTGGTGTT,-0.17
10,TGTCTCACGTGTGATT,0.3
11,TTCATCACGTGCATGG,0.3
12,AATATCACGTGGTAAT,0.13
13,TGGGTCACGTGTCGCT,0.04
14,GGGGGCACGTGCAATT,-0.02
15,TGAGTCACGTGAACGT,0.24
16,TGGATCACGTGTGTAA,0.12
17,CTATTCACGTGAATAT,0.58
18,GTGTACACGTGTCGAG,0.15
19,AAAGACACGTGCTGGG,0.02
20,TTCTTCACGTGCGTGA,0.25
21,GTGGTCACGTGGGACC,0.14
22,GGATGCACGTGAGTGG,0.12
23,GCAGGCACGTGTCGGG,0.01
24,GAGTGCACGTGAGTGC,0.3
25,CGTGGCACGTGGGGTC,-0.27
26,AGGGGCACGTGAGGAC,0.1

row,Sequence,relative binding free energy [kcal/mol]
1,CGGGGCACGTGCGTGC,-0.28
2,GATATCACGTGTATGA,0.15
3,TGCGACACGTGAGGTG,0.21
4,TAGTGCACGTGGTTAT,0.01
5,TTGGTCACGTGGATTT,0.19
6,TCTGACACGTGTAGTG,0.1
7,AGAGTCACGTGGCAGT,-0.07
8,AGAATCACGTGTGAGG,0.33
9,CATTGCACGTGTCGGG,0.05
10,ATAGACACGTGGGAAG,-0.02
11,AGCGTCACGTGGGTTA,-0.13
12,TCGTTCACGTGTGGTT,0.33
13,GATGTCACGTGATCGT,0.19
14,GGTCGCACGTGTGTTG,0.05
15,CTGTTCACGTGTTGTG,0.18
16,ATGATCACGTGAAGTT,0.25
17,TGAATCACGTGGGTGC,0.13
18,GGGTACACGTGGGGGT,0.03
19,ATGGGCACGTGGCTTC,-0.12
20,TGAGGCACGTGATGTT,-0.03
21,TGGGTCACGTGGCAGA,0.05
22,TGGTTCACGTGGGCAA,0.14
23,GAAGGCACGTGGGAGT,-0.11
24,GTGTTCACGTGGTAGT,0.23
25,AGGGTCACGTGAGGTG,0.28
26,TGATACACGTGTTGTA,0.08

row,Sequence,relative binding free energy [kcal/mol]
1,TCGTACACGTGGAATT,0.26
2,TCGTACACGTGATTGT,0.27
3,ATGCGCACGTGTTATT,-0.03
4,ATTTTCACGTGAACAG,0.41
5,TATAGCACGTGGCCGG,-0.24
6,TAATTCACGTGATGTA,0.21
7,GGAATCACGTGTGGTG,0.05
8,GATTGCACGTGGAGCT,0.1
9,AGGTACACGTGGCATG,-0.08
10,GTAGGCACGTGCTGGA,-0.14
11,CGTTTCACGTGAGTCT,0.37
12,GTTCTCACGTGTGTGA,0.21
13,GTGTCCACGTGGCTGT,0.02
14,TTTGGCACGTGTATCC,0.04
15,GACGGCACGTGCAGGT,0
16,TAAGACACGTGTGTTG,0.14
17,TTGGTCACGTGCCTAG,0.08
18,ACAAGCACGTGTGTGT,-0.1
19,GATCTCACGTGTGGAG,0.27
20,TGGGGCACGTGCTCTT,-0.12
21,GCTTTCACGTGTTTAG,0.42
22,AGGGGCACGTGCTGTT,-0.28
23,GAGTTCACGTGCGGAG,0.29
24,TATGCCACGTGGTTGA,-0.19
25,GAGGACACGTGTGCGT,0.15
26,GGATACACGTGGTAGC,0.1

row,Sequence,relative binding free energy [kcal/mol]
1,GGGATCACGTGGGTCT,0.04
2,CTATTCACGTGGGGAG,0.19
3,TTGAACACGTGACTGG,0.35
4,GTGTGCACGTGGATTC,0.03
5,TTAGTCACGTGGGGGA,-0.01
6,ATAGACACGTGTTAAT,0.11
7,TGAAGCACGTGAATGG,0.3
8,GTTTGCACGTGAATGG,0.33
9,TTCAGCACGTGAGGGT,0.14
10,TTGCGCACGTGTTTCA,0.01
11,AGGTGCACGTGTTGCC,0.06
12,TGCGGCACGTGTTTGG,-0.08
13,ATTATCACGTGTGAAG,0.33
14,AGTAGCACGTGAGTGG,0.01
15,GGCGTCACGTGTGACA,0.38
16,AGTGTCACGTGAGAGC,0.15
17,ATAATCACGTGTTAAT,0.12
18,AATGTCACGTGTCGGA,-0.02
19,GGTTTCACGTGTGTCC,0.43
20,ATGTTCACGTGTAGGT,0.22
21,GTTCTCACGTGTTATT,0.29
22,TGTGTCACGTGACGTT,0.16
23,TGTGACACGTGATCGT,-0.05
24,TTAGACACGTGTTCTG,-0.11
25,GTAATCACGTGATGTT,0.25
26,TGTGTCACGTGGCAAT,-0.06

row,Sequence,relative binding free energy [kcal/mol]
1,TTCGTCACGTGGAAGG,0.22
2,GGGTACACGTGGGATA,0
3,TATGGCACGTGTCGGA,-0.13
4,CTTGGCACGTGGGGCT,-0.24
5,AGGTGCACGTGTAGTG,0.05
6,TAACTCACGTGGTAGG,0.23
7,TAGGACACGTGTCGTT,0.02
8,AATTGCACGTGAGCTG,0.28
9,GGTAGCACGTGCCGTT,-0.04
10,GTGTGCACGTGTTAAT,0.09
11,TATAGCACGTGAGTGA,0.01
12,AGGTACACGTGTATGA,-0.06
13,CAGAGCACGTGGGTTA,-0.17
14,GGCGACACGTGGTTTA,0.14
15,ATCGTCACGTGTGTTA,0.11
16,TATTCCACGTGGATTT,0.14
17,TGAGTCACGTGCGTTG,0.06
18,GCTCGCACGTGGTGTG,-0.13
19,CTCGGCACGTGGGATG,-0.22
20,TGGCTCACGTGGAGGG,0.04
21,TGGCTCACGTGGCTGT,0.01
22,TCGGGCACGTGCGGCG,-0.15
